The values below come from article PMC4336329 (PLoS ONE, 2015).

The structures appear in SMILES notation. In all, about 310,000 compounds went through this assay and about 14,000 (4.5%) showed an effect of 50% or more. Effects have a minus sign here. The list shows a part of the results.
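Note: peak tail current of the secondary pulse compared with the same well before compound.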

In the assay the target is human ether-à-go-go-related gene (hERG) potassium channel (human, UniProt Q12809). The assay can be described thus: primary screen, population patch clamp on CHO cells stably expressing hERG.
Sequence of human ether-à-go-go-related gene (hERG) potassium channel (Q12809 whole entry, looked up): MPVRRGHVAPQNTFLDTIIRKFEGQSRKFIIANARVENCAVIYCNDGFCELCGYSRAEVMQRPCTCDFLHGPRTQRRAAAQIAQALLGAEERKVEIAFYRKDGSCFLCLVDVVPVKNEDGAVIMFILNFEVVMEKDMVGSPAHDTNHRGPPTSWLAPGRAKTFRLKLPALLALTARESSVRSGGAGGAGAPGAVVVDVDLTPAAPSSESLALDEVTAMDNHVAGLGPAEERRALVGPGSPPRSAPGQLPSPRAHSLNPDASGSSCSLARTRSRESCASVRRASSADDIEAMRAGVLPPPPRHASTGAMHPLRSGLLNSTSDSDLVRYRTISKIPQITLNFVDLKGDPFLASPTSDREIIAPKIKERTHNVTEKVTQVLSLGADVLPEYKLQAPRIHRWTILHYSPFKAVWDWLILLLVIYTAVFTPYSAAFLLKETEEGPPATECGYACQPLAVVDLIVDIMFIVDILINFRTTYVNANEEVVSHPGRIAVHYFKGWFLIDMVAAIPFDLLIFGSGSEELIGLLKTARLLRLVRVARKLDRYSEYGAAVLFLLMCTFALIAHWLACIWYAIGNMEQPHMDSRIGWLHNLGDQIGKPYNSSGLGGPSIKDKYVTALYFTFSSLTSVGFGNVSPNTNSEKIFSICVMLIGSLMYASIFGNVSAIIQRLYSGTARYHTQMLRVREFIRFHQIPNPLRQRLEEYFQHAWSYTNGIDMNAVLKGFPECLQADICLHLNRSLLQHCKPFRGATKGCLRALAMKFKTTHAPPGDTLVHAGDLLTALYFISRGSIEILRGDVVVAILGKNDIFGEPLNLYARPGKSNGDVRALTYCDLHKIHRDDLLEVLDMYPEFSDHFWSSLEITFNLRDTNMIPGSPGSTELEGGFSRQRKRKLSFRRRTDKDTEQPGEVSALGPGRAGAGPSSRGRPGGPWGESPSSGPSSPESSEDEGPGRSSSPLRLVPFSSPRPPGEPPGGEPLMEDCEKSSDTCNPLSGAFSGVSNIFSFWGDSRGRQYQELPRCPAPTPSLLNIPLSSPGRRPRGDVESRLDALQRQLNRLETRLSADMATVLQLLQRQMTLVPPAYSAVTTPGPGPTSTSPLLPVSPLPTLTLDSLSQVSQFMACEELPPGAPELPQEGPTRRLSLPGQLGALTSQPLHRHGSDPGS
On to `CCOc1ccccc1C(=O)Oc1cc(C)[nH]c(=O)c1[N+](=O)[O-]`, for which the “hERG current change (%, negative = inhibition) at 10uM” value worked out at 6.9%. Under `C=CCn1c(CCNC(=O)C(C)(C)C)nc2ccccc21` stands 12.7%; under `COc1cccc(CNC(=O)c2ccc(NC(=O)C3=CSCCO3)cc2)c1`, 5.45%; under `COc1ccc(Cl)cc1NC(=S)NC(=O)c1ccc2c(c1)OCO2`, 11.1%.

With `CC(NS(=O)(=O)c1ccc(OCC(=O)NCc2ccncc2)cc1)c1ccccc1` (centres unmarked), the “hERG current change (%, negative = inhibition) at 10uM” value is on record as 15%.

On to `COc1ccc(NC(=O)CN(c2ccc(OC)cc2)S(=O)(=O)c2c(C)nn(C)c2C)cc1`, for which the “hERG current change (%, negative = inhibition) at 10uM” value is 5.28%. With `Cc1ccccc1C(=O)Nc1nnc(CC(=O)N/N=C/c2ccncc2)s1` the figure was 14.1%. On to `COCCCN(C(=S)NC(=O)C(C)(C)C)c1c(N)n(Cc2ccccc2)c(=O)[nH]c1=O`, for which the “hERG current change (%, negative = inhibition) at 10uM” value is recorded as 18.2%. With `O=C1N/C(=N\N=C\c2cccs2)SC1Cc1ccc(Cl)cc1` (centres unmarked) the figure was -8.96%.

Consider `CCn1c(SCC(=O)C(C)(C)C)nnc1-c1ccccn1`, for which the “hERG current change (%, negative = inhibition) at 10uM” value is given as 8.27%. Under `O=C(COc1ncnc2ccccc12)Nc1ccccc1[N+](=O)[O-]` stands 6.5%.

Regarding `O=C1Nc2ccccc2C12Nc1ccccc1S2` (centres unmarked), the “hERG current change (%, negative = inhibition) at 10uM” value was 8.88%.

For `Cc1csc(SCC(=O)NC23CC4CC(CC(C4)C2)C3)n1`, the “hERG current change (%, negative = inhibition) at 10uM” value is reported as -20.5%. With `CCOC(=O)c1ccc(NC(=O)CC2C(=O)OCCN2CC)cc1` (centres unmarked), the “hERG current change (%, negative = inhibition) at 10uM” value is listed as -2.18%. With `CCC(=O)N1CCN(c2ccc(Cl)cc2NC(=S)NC(=O)c2ccco2)CC1` the figure was -0.88%. Take `O=S(=O)(NCCc1ccccn1)c1ccc(OC(F)(F)F)cc1`: the “hERG current change (%, negative = inhibition) at 10uM” value is listed as 14.5%. Consider `NS(=O)(=O)c1ccc(-c2ccc(/C=C3\C(=O)Nc4ccccc43)o2)cc1`, for which the “hERG current change (%, negative = inhibition) at 10uM” value was 11%. Turning to `O=C(COc1ccc2ccccc2c1)Nc1ccncc1`, the “hERG current change (%, negative = inhibition) at 10uM” value was found to be 1.27%. Under `Cc1cc(Cl)ccc1NC(=O)Cn1cncn1` stands 14.3%; under `COc1ccccc1C(=O)NCCn1cc(SCC(=O)NCC2CCCO2)c2ccccc21` (centres unmarked), -16.1%; under `CC(C(=O)NC(c1ccccc1)c1ccccc1)N1CCOCC1` (centres unmarked), -12.3%. For `C/C(N)=C(/C#N)C(=O)CSc1nnnn1-c1ccc(C)cc1`, the “hERG current change (%, negative = inhibition) at 10uM” value was -11.2%. With `CCOc1ccc(-c2cc3cc(OC)c(OC)cc3c(C)n2)cc1` the figure was 0.157%; with `CC(C)CCN1CCN(Cc2cccn2-c2ccc(Cl)cn2)CC1CCO` (centres unmarked), -64.8%; with `CCc1c(C(=O)NC2CCCc3ccccc32)[nH]c(C)c1C(C)=O` (centres unmarked), 5.15%. With `CC1CC(C)(C)NC(=O)O1` (centres unmarked), the “hERG current change (%, negative = inhibition) at 10uM” value was 4.42%.

Take `O=C1C2C3c4ccccc4C(c4ccccc43)C2C(=O)N1c1nc(-c2ccccc2)cs1` (centres unmarked): the “hERG current change (%, negative = inhibition) at 10uM” value came out at 15.5%.

Consider `Cl.O=C(CCN1CCCCC1)Nc1cccc(Cl)c1`, for which the “hERG current change (%, negative = inhibition) at 10uM” value is reported as -35.9%.

In the case of `COc1cccc(CC2(CO)CCN(CC3=CC[C@H]4C[C@@H]3C4(C)C)CC2)c1`, the “hERG current change (%, negative = inhibition) at 10uM” value is recorded as -44.2%. Under `O=c1[nH]c2ccccc2c(=O)n1-c1cccc(Cl)c1` stands -3.31%. For `CNC(=O)c1cc2ncc(C(F)(F)F)cc2s1`, the “hERG current change (%, negative = inhibition) at 10uM” value is 6.18%. For the molecule `Cc1cccc(-c2c(O)cc(=O)[nH]c2Cl)c1`, the “hERG current change (%, negative = inhibition) at 10uM” value is 2.34%. With `CCCNC(=O)Nc1nccs1` the figure was 11.3%. As for `Cc1cccc(NC(=S)Nc2ccc(Br)cc2)c1`, the “hERG current change (%, negative = inhibition) at 10uM” value worked out at 7.23%. For the molecule `CCOc1ccc(S(=O)(=O)/N=C(/c2ccccc2)N(C)C)cc1`, the “hERG current change (%, negative = inhibition) at 10uM” value stood at 14%.

Turning to `CCOc1cc(S(=O)(=O)N2CCCC2)ccc1Cl`, the “hERG current change (%, negative = inhibition) at 10uM” value is recorded as -0.0211%. With `Cc1c(C(=O)N(C)C)c2cc(Cl)ccc2n1O` the figure was 15.9%; with `O=C(C(=O)N1CCOCC1)c1cn(CC(=O)N2CCc3ccccc3C2)c2ccccc12`, -16%; with `Cc1ccnc(N/C=C(/NC(=O)c2ccccc2)C(=O)NN)n1`, 4.27%. Under `O=C1CCC(C(=O)OC(C(=O)c2c[nH]c3ccccc23)c2ccccc2)=NN1` (centres unmarked) stands -3.33%. Take `Cc1cc(-c2n[nH]c(=S)n2/N=C/c2sccc2C)n[nH]1`: the “hERG current change (%, negative = inhibition) at 10uM” value is on record as 15.8%.

Turning to `CC(C)Cn1c(=O)[nH]c2ccccc21`, the “hERG current change (%, negative = inhibition) at 10uM” value came out at 3.46%. In the case of `CCN(CC)S(=O)(=O)c1ccc2oc(Nc3ccc(OC)cc3OC)nc2c1`, the “hERG current change (%, negative = inhibition) at 10uM” value was 9.24%. With `O=c1c(O)c(-c2cccs2)oc2ccccc12` the figure was -1.08%; with `COc1ccc(CN(C)S(=O)(=O)c2nnc(NC(=O)c3ccccc3Br)s2)cc1`, -2.47%.

With `COc1ccc(C(=O)NCCn2cc(SCC(=O)NCC3CCCO3)c3ccccc32)cc1OC` (centres unmarked), the “hERG current change (%, negative = inhibition) at 10uM” value is -13.9%.

Turning to `Cc1nc2ccccc2c(=O)n1CCc1ccc(O)cc1`, the “hERG current change (%, negative = inhibition) at 10uM” value is 7.99%. As for `CCOc1ccccc1-c1nc(-c2ccc(C)nc2OC)no1`, the “hERG current change (%, negative = inhibition) at 10uM” value is listed as 6.86%. For the molecule `O=C(O)c1ccc(NC(=O)C2CCCCC2)cc1`, the “hERG current change (%, negative = inhibition) at 10uM” value was -7.8%. With `COC(=O)c1c(C(=O)OC)c2cccc3cc(-c4ccccc4)c4ccc1c4n32` the figure was 20.7%. With `CCCc1c(C(=O)NNc2cc(C(F)(F)F)ccc2Cl)cnn1-c1ccccc1` the figure was 0.78%. With `CC(=O)c1ccc(N2CCN(CC(=O)Nc3ccccc3C(=O)NC3CC3)CC2)c(F)c1` the figure was -27.9%. Turning to `Cc1ccc(-c2cc(C(=O)O)c3cc(Br)ccc3n2)o1`, the “hERG current change (%, negative = inhibition) at 10uM” value came to 5.78%. Take `CC(=O)NCC(=O)N(C)C(C(=O)Nc1ccc2c(c1)OCCO2)c1ccccc1` (centres unmarked): the “hERG current change (%, negative = inhibition) at 10uM” value came out at 6.16%.

Take `Cn1c(C(=O)NC2CC2)cc2c(=O)n(C)c3ccccc3c21`: the “hERG current change (%, negative = inhibition) at 10uM” value is listed as -6.56%. With `Cc1cccc2c1-c1sc(C(=O)NCCCN3CCCC(C)C3)cc1CO2` (centres unmarked), the “hERG current change (%, negative = inhibition) at 10uM” value is on record as -77.9%. Under `COc1ccc(CN(CCN2CCOCC2)C(=O)c2c(F)cccc2F)cc1OC.Cl` stands -5.21%. Consider `Cc1cc(C)n(-c2nc(C)nc(N)n2)n1`, for which the “hERG current change (%, negative = inhibition) at 10uM” value came out at 10.3%. With `Cc1ccc2[nH]c3c(c2c1)CNCC3.Cl` the figure was 24.6%.
